Laboratory results published in PubChem BioAssay AID492947 (National Center for Advancing Translational Sciences (NCATS), 2010).
Screen size: about 330,000 compounds; about 80 (0.02%) were called active. The shares of active, inactive and inconclusive entries below differ from those in the screen. The call rests on the fitted dose curve; in most records, active means well fitted activation curve with a large enough effect; inconclusive means small, poorly fitted or top-dose-only effect; inactive means flat fitted curve, though single readings scatter. Potencies of inconclusive entries are left out as doubtful fits.
Further: nearly all actives have a fitted effect of over 65% in size.
Potency means the concentration at half of the fitted maximal effect; tags describe the fitted curve by direction and shape.

These compounds were tested against Beta-2 adrenergic receptor (Homo sapiens) (UniProt P07550) (assay: qHTS assay of beta-arrestin-biased ligands of beta2-adrenergic receptor). Conditions: beta-arrestin recruitment to beta2AR, cell-based reporter; series mostly up to 46.1 µM.
UniProt P07550, sequence (P07550 whole entry, looked up): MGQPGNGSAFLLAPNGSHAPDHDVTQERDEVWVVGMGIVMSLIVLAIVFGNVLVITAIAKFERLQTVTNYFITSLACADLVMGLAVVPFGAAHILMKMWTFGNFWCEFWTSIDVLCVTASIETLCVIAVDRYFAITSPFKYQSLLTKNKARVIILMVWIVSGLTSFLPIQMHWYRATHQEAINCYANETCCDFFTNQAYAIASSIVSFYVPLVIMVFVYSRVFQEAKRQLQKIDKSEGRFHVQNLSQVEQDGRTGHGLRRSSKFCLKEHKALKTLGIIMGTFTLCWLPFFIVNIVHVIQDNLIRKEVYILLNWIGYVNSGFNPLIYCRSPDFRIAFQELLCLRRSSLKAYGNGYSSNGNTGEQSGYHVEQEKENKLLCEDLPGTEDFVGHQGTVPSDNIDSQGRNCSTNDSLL
How it was run: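 Agonist activity is measured as luciferase luminescence downstream of beta-arrestin recruitment to recombinant beta2-AR in Tango cells. Exposure lasts 18 hr at 37 degrees C, and curves are categorized by r2, response size and activity.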
`Fc1ccc(/C=N/NC(=S)Nc2cccnc2)cc1` was tested, and the Potency was inconclusive [activator, partial curve]. For `COc1cc2sc3ccc(-c4ccc(CN5CCOCC5)cc4)cc3c(=O)c2cc1OC`, the Potency was inconclusive [rising, single point]. With `Cc1ccc(NS(=O)(=O)c2cccc(C(=O)NCCc3c[nH]c4ccccc34)c2)c(C)c1` the Potency was “inactive”. For `COc1cccc(/C=N/NC(=O)c2cccc(N3CCCC3=O)c2)c1`, the Potency was “inactive”. In the case of `COc1ccccc1-n1c2nc3ccccc3nc2c2c(=O)n(-c3cc(C)cc(C)c3)cnc21`, the Potency is reported as inconclusive [rising, single point]. With `Cc1cccc(NC(=O)/C=C/c2ccc([N+](=O)[O-])s2)c1` the Potency was inconclusive [rising, single point]. With `COc1cc(/C(C)=N/NC(=S)NC(C)C)cc(OC)c1OC` the Potency was inconclusive [rising, single point]. For `O=C(c1[nH]nc2c1CCc1ccccc1-2)N1CCN(Cc2ccc3c(c2)OCO3)CC1`, the Potency was “inactive”. For `O=C(Nc1cc(=O)[nH]c2ncnn12)c1ccccc1`, the Potency was inconclusive [rising, single point]. For `CCOC(=O)c1ccc(NC(=O)CCn2nnc3ccccc32)cc1`, the Potency was inconclusive [rising, single point]. For `Cc1ccn2c(Nc3ccccc3C)c(-c3ccccn3)nc2c1`, the Potency was inconclusive [rising, single point]. In the case of `Cc1cc(-c2n[nH]c(=S)n2/N=C/C(Br)=C/c2ccccc2)n[nH]1`, the Potency is reported as inconclusive [rising, single point]. For `CCOC(=O)c1[nH]cnc1C(=O)Nc1ccc([N+](=O)[O-])cc1`, the Potency was “inactive”. `Oc1ccc(COCc2ccccc2)c2cccnc12` was tested, and the Potency was inconclusive [activator, partial curve]. For `CN(C)S(=O)(=O)c1ccc(C(=O)OC2CCOC2=O)cc1` (stereo unspecified), the Potency was “inactive”. For `NC(=S)N/N=C1\CC(c2ccc3c(c2)OCCCO3)Oc2ccc(F)cc21` (stereo unspecified), the Potency was inconclusive [rising, single point]. For `O=C(NCCOc1cccnc1)C1CCC(=O)N(Cc2ccccc2F)C1` (stereo unspecified), the Potency was inconclusive [rising, single point]. With `Nc1ccc2cn[nH]c2c1` the Potency was “inactive”. `O=C(CSc1nc2ccccc2o1)Nc1nccs1` was tested, and the Potency was inconclusive [rising, single point]. With `CCN(CC)C(=S)SSC(=S)N(CC)CC` the Potency was active: 0.651 µM. For `COc1cc(CNC2CCCC2)c(Br)cc1OC1CCCC1`, the Potency was inconclusive [rising, single point].
